# Measurements from PubChem BioAssay AID686979 (National Center for Advancing Translational Sciences (NCATS), 2013).
# About 50,000 (12%) of roughly 420,000 compounds were called active. Inconclusive results, whose numbers are uncertain, are shown with a selection of clear calls. Calls come from the whole dose curve; as a rule, active = well fitted inhibition curve with a large enough effect; inconclusive = small, poorly fitted or top-dose-only effect; inactive = flat fitted curve, though single readings scatter. No potency is given beside an inconclusive call; the fits are too rough.
# Assay: qHTS for Inhibitors of human tyrosyl-DNA phosphodiesterase 1 (TDP1): qHTS in cells in presence of CPT; note: nearly all actives have a fitted effect of over 55% in size
# Details: chicken DT40 Tdp1-/-;hTDP1 cells + 20 nM CPT, ATP luminescence, 48 h; activity change, negative = growth inhibition: at 46.2 µM (top of the series)
# How it was run: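 Chicken DT40 Tdp1-/- cells stably complemented with human TDP1 were seeded at 400 cells/well in medium containing 20 nM camptothecin, exposed to pin-transferred compounds, and grown at 37 °C for at least 48 hr. Viability was read as ATP luminescence.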
# % is set by controls: 0 for no effect and ±100 for the full control effect; potency is the fitted concentration of half-maximal effect; tags give direction and shape of the fitted curve.
SMILES,Potency,"activity change, negative = growth inhibition"
COc1cc([N+](=O)[O-])cc(/C=N/NC(=O)C(C)Nc2ccccc2C)c1O (stereo not given),active: 14.6 µM,
O=C(Nc1sc2c(c1C(=O)Nc1cccc(Cl)c1)CCCC2)c1cccs1,"inconclusive [inhibitor, single point]",
CC1C(=O)N2CCCc3cc(NC(=O)C(=O)NCCCc4ccccc4)cc1c32 (stereo not given),"inconclusive [inhibitor, single point]",
CC(=O)OC(C(=O)Nc1ccccc1)C(C)S(=O)(=O)c1ccccc1 (stereo not given),"inconclusive [inhibitor, single point]",
Cc1cccc(NC(=O)COC(=O)c2ccccc2-c2nc3ccccc3s2)c1C,"inconclusive [inhibitor, single point]",
COC(=O)c1ccc(C[n+]2ccccc2)cc1,,inactive: -4.63%
COc1cccc(Oc2ccc(C(F)(F)F)cc2NC(=O)CN2C(=O)NC3(CCCC3)C2=O)c1,active: 14.6 µM,
Cc1ccc(NC(=O)CSc2nc(=O)n(Cc3ccco3)c3c2CCC3)cc1F,"inconclusive [inhibitor, single point]",
S=c1[nH]nc(-c2ccco2)n1-c1cccc2ccccc12,,inactive: 2.3%
CC(=O)Nc1cccc(/C(C)=N\NC(=O)c2ccc(Cn3nc([N+](=O)[O-])c(Cl)c3C)o2)c1,"inconclusive [inhibitor, single point]",
CC1Cc2ccccc2N1S(=O)(=O)c1nnc(NC(=O)c2cccc(F)c2)s1 (stereo not given),"inconclusive [inhibitor, single point]",
COc1ccccc1C(CNC(=O)c1cccc(NS(=O)(=O)c2ccc(Br)cc2)c1)N(C)C (stereo not given),"inconclusive [inhibitor, single point]",
CCOCCCNC(=O)C(NC(=O)c1ccc(NC(C)=O)cc1)c1ccc(C)cc1 (stereo not given),"inconclusive [inhibitor, single point]",
CC(=O)C(C(c1ccccc1)N1CCCc2ccccc21)N1CCOCC1 (stereo not given),"inconclusive [inhibitor, single point]",
CC(C)(C)c1nnc(NC(=O)Cc2ccc(Br)cc2)s1,"inconclusive [inhibitor, single point]",
CN1CCN(S(=O)(=O)c2cccc(C(=O)Oc3ccc(C(C)(C)C)cc3)c2)CC1,"inconclusive [inhibitor, single point]",
COc1ccc(CNc2nc3ccccc3s2)cc1OC,"inconclusive [inhibitor, single point]",
CCCCC(=O)N1CCN(c2ccc(OC)cc2[N+](=O)[O-])CC1,"inconclusive [inhibitor, single point]",
Cc1cccc(OCCn2c(NC(=O)c3ccco3)nc3ccccc32)c1,active: 25.9 µM,
Cc1ccc(F)cc1CNC(=O)c1cc(COc2ccc3ncccc3c2)on1,active: 4.11 µM,
COc1ccc(NC(C)=O)cc1CNC(=O)CN1CCOCC1,,inactive: 4.28%
O=C(CSc1ccc2c(c1)OCCO2)N1CCN(c2ccccc2O)CC1,active: 23.1 µM,
COC(=O)C1CCN(CC(=O)Nc2ccc3c(c2)OCCO3)CC1,"inconclusive [inhibitor, single point]",
COc1ccc(C2Nc3ccccc3NC3=C2C(=O)CC(C)(C)C3)c(OC)c1OC (stereo not given),,inactive: 28.7%

SMILES,Potency,"activity change, negative = growth inhibition"
Cc1ccc(F)cc1S(=O)(=O)NCc1nc(N2CCCC2)c2cccc(C)c2n1,"inconclusive [inhibitor, single point]",
CN(C)S(=O)(=O)c1cccc(NC(=O)c2ccccc2OCc2ccc(F)cc2)c1,active: 14.6 µM,
CCOc1ccc(-c2c(=O)n(OCc3ccc([N+](=O)[O-])cc3)c3ccccc3[n+]2[O-])c(OCC)c1,"inconclusive [inhibitor, single point]",
CCn1nnc2cc(C(=O)Nc3ccc(C)c(Cl)c3)ccc21,,inactive: -10.3%
COc1cccc(Cc2nc3cccnc3n2C2CCN(Cc3ccc(C)s3)CC2)c1,,inactive: -4.29%
CC1(C(=O)NCc2ccc3c(c2)OCO3)CCN1C(=O)Cc1cccc2ccccc12 (stereo not given),"inconclusive [inhibitor, single point]",
CC1=C(C(=O)OC2CCCCC2)C(c2ccco2)C2=C(CC(C)(C)CC2=O)N1 (stereo not given),active: 18.4 µM,
O=c1oc2cccnc2n1CCS(=O)(=O)c1ccc(F)cc1,,inactive: -3.52%
CC1CCCC(C)N1C(=O)c1ccc(CS(=O)(=O)c2ccccc2)cc1 (stereo not given),"inconclusive [inhibitor, single point]",
Cc1ccc(N2CC(C(=O)Nc3ncc([N+](=O)[O-])s3)CC2=O)cc1 (stereo not given),"inconclusive [inhibitor, partial curve]",
Cc1c(C(=O)N2CCC(C)CC2)c(S(=O)(=O)Nc2cccc(C(F)(F)F)c2)c(C)n1C,"inconclusive [inhibitor, full curve, poor fit]",
CC(C)(C)c1cc(CN(CCO)CCO)cc(C(C)(C)C)c1O,"inconclusive [inhibitor, single point]",
CCOC(=O)c1c(NC(=O)COc2ccc(C)cc2C(C)(C)C)sc2c1CCC(C)C2 (stereo not given),,inactive: 4.95%
OC(c1ccccc1)C(NCCNCc1ccccc1)c1ccccc1 (stereo not given),"inconclusive [inhibitor, single point]",
O=C(Cn1ncc2c3ccccc3n(Cc3ccccc3)c2c1=O)NCc1ccco1,,inactive: -19.2%
COc1ccc(CCC(C)NC2CCCCCCC2)cc1 (stereo not given),"inconclusive [inhibitor, single point]",
Nc1ncc2c(n1)CCN(c1ccc([N+](=O)[O-])cc1)C2,,inactive: -3.78%
Cn1nc(C(C)(C)C)cc1C(=O)N1CCCCC1c1cc(C(=O)Nc2ccc3c(c2)OCO3)no1 (stereo not given),active: 18.4 µM,
Cc1nn(S(=O)(=O)c2ccc(C(C)(C)C)cc2)c(C)c1S(=O)(=O)N1CCC(C)CC1,,inactive: -10.3%
CC1Sc2ccc(C(=O)Nc3ccc(S(=O)(=O)N(C)C)cc3)cc2NC1=O (stereo not given),"inconclusive [inhibitor, single point]",
COc1ccc(C(=O)NC(=S)NCc2ccco2)cc1,"inconclusive [inhibitor, single point]",
Cc1cc(C)cc(C(O)c2ncc(-c3ccccc3Cl)[nH]2)c1 (stereo not given),"inconclusive [inhibitor, single point]",
COc1ccnc(Oc2cccc(C(F)(F)F)c2)c1C(=O)N/C=N/OCc1ccccc1F,"inconclusive [inhibitor, single point]",
COc1ccc(/C=C2/CC/C(=C\c3ccc(OC)c(OC)c3OC)C2=O)c(OC)c1OC,"inconclusive [inhibitor, single point]",

SMILES,Potency,"activity change, negative = growth inhibition"
Cc1ccc(Cn2c(CNC(=O)Cc3cccc(C)c3)nc3cccnc32)cc1,active: 13 µM,
CC(=O)c1ccc(N2CCN(S(=O)(=O)c3cc(-c4noc(C)n4)ccc3C)CC2)cc1,"inconclusive [inhibitor, partial curve]",
COc1ccc(N2CCN(C(=O)c3ccc(CNS(=O)(=O)c4cc(C)ccc4C)cc3)CC2)cc1,active: 20.6 µM,
Cn1c(N)c(N2CCCCC2)c(=O)n(CC(=O)Nc2cccc(C#N)c2)c1=O,,inactive: 5.86%
COc1cccc2cc(C(C)N(CCCN3CCOCC3)C(=S)Nc3cccc(C)c3)oc12 (stereo not given),,inactive: -4.59%
COc1ccc2[nH]cc(CCNc3ncnc4ccc(-c5cccnc5)cc34)c2c1,active: 14.6 µM,
Cc1ccc(S(=O)(=O)NNc2nc3ccccc3nc2C(F)(F)F)cc1,,inconclusive: -30.7% [inhibitor]
CCCCn1c(SCC(=O)Nc2cc(C)on2)nc2cc(S(N)(=O)=O)ccc21,,inactive: -14.2%
CN1CCN(c2ncnc3ccc(-c4ccccc4C#N)cc23)CC1,"inconclusive [inhibitor, single point]",
O=C(COC(=O)c1ccccc1Sc1ccc(C(F)(F)F)cc1[N+](=O)[O-])NC(=O)NC1CCCC1,"inconclusive [inhibitor, single point]",
Cc1cc(NC(=S)NC(=O)c2ccco2)c2ccccc2n1,"inconclusive [inhibitor, single point]",
CCCCN1C(=O)c2ccc(C(=O)OCC(=O)NCCc3ccc(S(N)(=O)=O)cc3)cc2C1=O,,inactive: 8.43%
COCCN1C(=O)c2oc3ccc(C)cc3c(=O)c2C12C(=O)N(C)c1ccccc12 (stereo not given),,inactive: 6.3%
CCOC(=O)[C@]12CCC=C1N(Cc1cccc3ccccc13)C(=O)[C@H](CC(=O)NCCCN1CCCC1=O)C2,"inconclusive [inhibitor, single point]",
COC(=O)c1cc2oc3ccccc3c2n1Cc1nc(-c2cccc(C)c2)oc1C,,inactive: -13.2%
COc1ccc2[nH]cc(CCNC(=O)c3cnn(-c4ccc(C)cc4)c3C3CCN(C(=O)OC(C)(C)C)CC3)c2c1,active: 9.2 µM,
Cc1cc([N+](=O)[O-])ccc1NCc1ccc2ccccc2c1,"inconclusive [inhibitor, single point]",
O=C(Cc1ccc2cccnc2c1)c1ccc(O)cc1O,,inactive: -13.1%
COc1ccc(CCNC(=O)CN2CCN(Cc3ccc(F)cc3)C2=O)cc1OC,"inconclusive [inhibitor, full curve, poor fit]",
COc1ccccc1CNC(=O)c1cnc(SC)nc1C,active: 23.1 µM,
C[C@@H](NC(=O)[C@@H]1Cc2ccccc2CN1C(=O)OC(C)(C)C)C(=O)NCc1ccco1,,inactive: 2.39%
COc1cc(CCC(=O)Nc2cccc(S(=O)(=O)N(C)C)c2)cc(OC)c1OC,"inconclusive [inhibitor, single point]",
